PMC4336329 (PLoS ONE, 2015)
Out of some 310,000 compounds screened, about 14,000 (4.5%) showed an effect of 50% or more. The effect is printed as a negative number. Some of the results follow.

molecular target: human ether-à-go-go-related gene (hERG) potassium channel (human, UniProt Q12809); test: primary screen, population patch clamp on CHO cells stably expressing hERG
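Further: peak tail current of the secondary pulse compared with the same well before compound.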

Chain of human ether-à-go-go-related gene (hERG) potassium channel (Q12809 whole entry, looked up): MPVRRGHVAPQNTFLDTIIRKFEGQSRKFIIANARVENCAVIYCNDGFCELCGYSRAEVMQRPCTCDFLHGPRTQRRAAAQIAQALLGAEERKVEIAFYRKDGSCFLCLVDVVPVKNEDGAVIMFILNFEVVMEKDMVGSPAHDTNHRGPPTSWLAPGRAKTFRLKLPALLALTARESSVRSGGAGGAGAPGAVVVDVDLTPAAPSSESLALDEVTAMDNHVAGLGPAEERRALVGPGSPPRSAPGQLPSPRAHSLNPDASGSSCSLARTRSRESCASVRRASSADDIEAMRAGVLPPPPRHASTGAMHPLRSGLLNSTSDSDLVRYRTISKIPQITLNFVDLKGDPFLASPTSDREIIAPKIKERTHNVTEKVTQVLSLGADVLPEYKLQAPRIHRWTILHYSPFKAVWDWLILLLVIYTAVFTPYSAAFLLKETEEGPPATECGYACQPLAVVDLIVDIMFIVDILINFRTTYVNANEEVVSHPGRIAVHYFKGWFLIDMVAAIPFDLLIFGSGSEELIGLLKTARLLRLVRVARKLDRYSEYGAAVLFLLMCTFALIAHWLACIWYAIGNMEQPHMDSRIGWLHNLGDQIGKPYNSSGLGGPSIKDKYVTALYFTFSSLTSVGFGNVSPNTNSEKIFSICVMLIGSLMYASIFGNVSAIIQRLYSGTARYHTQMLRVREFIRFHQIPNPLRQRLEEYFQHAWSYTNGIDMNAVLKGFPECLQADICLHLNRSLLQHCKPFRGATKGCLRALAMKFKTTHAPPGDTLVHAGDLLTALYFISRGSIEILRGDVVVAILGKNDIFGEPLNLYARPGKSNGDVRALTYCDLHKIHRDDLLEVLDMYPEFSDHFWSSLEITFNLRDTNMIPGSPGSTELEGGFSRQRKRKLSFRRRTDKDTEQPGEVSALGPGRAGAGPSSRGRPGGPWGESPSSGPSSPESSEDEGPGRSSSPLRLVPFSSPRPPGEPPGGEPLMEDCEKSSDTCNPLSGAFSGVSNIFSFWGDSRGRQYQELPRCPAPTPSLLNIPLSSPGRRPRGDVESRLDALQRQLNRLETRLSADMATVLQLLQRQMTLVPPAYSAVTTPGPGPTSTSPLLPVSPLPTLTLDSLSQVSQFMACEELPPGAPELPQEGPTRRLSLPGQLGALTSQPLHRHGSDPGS

Row | Structure (SMILES) | hERG current change (%, negative = inhibition) at 10uM [%]
1 | CC1CC(C)CN(c2nc3c(c(=O)n(C)c(=O)n3C)n2C)C1 (centres unmarked) | 1.37
2 | CC(=O)c1ccccc1NCC(=O)Nc1ccc(C)cc1 | 10.4
3 | O=C(Nc1ccc2c(c1)OCCO2)N1CCOCC1 | 19.3
4 | CCOc1ccc(/C=N/NC(=O)c2ccoc2C)cc1OC | -3.42
5 | O=C(O)c1cc(N2C(=O)CCC2=O)ccc1NCc1cccnc1 | 14.4
6 | Cc1[nH]n(-c2ccccc2)c(=O)c1C1(C(F)(F)F)C(=O)N(c2ccc(F)cc2)C2=C1C(=O)CC(C)(C)C2 (centres unmarked) | 11.8
7 | CN(C)c1ccc(P(=S)(N(C)C)N(C)C)cc1 | 7.91
8 | Cc1ccc(NC(=O)CCC(=O)NNC(=O)c2cccc([N+](=O)[O-])c2)cc1C | -3.39
9 | CCOc1cc(/C=C2\SC(=S)N(NS(=O)(=O)c3ccccc3)C2=O)ccc1O | 8.33
10 | COc1cccc(-c2c(C(=O)N/N=C/c3ccc(C)o3)nnn2-c2nonc2N)c1 | -4.96
11 | O=C(Cn1c(SCC(=O)N2CCc3ccccc32)nc2ccccc21)NC1CCCC1 | 19.5
12 | O=C(OCN1C(=O)c2ccccc2C1=O)C1CCCCC1 | 5.15
13 | CCOc1cc(CNCCSc2nnnn2C)cc(Br)c1OCc1ccccc1.Cl | -23.1
14 | COc1ccccc1N1CCN(CC(=O)c2c(N)n(C)c(=O)n(C)c2=O)CC1 | -14.7
15 | CSCC[C@H](NC(=O)OC(C)(C)C)C(=O)N1CCC(C(=O)N[C@@H](Cc2c[nH]c3ccccc23)C(=O)O)CC1 | 25.9
16 | Cc1cnc(C(=O)OCC(=O)c2cc(C)n(C)c2C)cn1 | 10.5
17 | COc1ccc(CNC(=O)[C@H](C)NC(=O)C2CCN(C(=O)[C@@H](N)Cc3ccccc3)CC2)cc1 | 3.52
18 | COc1ccccc1NC(=O)N1CCCC1C(=O)Nc1ccc2c(c1)OCCO2 (centres unmarked) | -5.77
19 | N[C@@H](CCC(=O)N[C@@H](CSN=O)C(=O)NCC(=O)O)C(=O)O | -8.65
20 | N#Cc1c(/N=C\c2ccc(O)c([N+](=O)[O-])c2)sc2c1CCCC2 | 15.8
21 | Cc1nn(CC(=O)Nc2ccccn2)c(=O)c2ccccc12 | 0.386
22 | CC(=O)Nc1ccc(-c2csc(-c3cccnc3)n2)cc1 | 3.98
23 | CCCCSc1nnc2n(CCc3ccccc3)c(=O)c3c4c(sc3n12)COC(C)(C)C4 | 7.19
